# Over roughly 33,000 sequences, “E-score (-0.5 to 0.5)” has its median near -0.032; the highest 2% begin near 0.36. Some of the results follow.
# Target: T1, Sko1 (UniProt Q02100)
# T1 sequence: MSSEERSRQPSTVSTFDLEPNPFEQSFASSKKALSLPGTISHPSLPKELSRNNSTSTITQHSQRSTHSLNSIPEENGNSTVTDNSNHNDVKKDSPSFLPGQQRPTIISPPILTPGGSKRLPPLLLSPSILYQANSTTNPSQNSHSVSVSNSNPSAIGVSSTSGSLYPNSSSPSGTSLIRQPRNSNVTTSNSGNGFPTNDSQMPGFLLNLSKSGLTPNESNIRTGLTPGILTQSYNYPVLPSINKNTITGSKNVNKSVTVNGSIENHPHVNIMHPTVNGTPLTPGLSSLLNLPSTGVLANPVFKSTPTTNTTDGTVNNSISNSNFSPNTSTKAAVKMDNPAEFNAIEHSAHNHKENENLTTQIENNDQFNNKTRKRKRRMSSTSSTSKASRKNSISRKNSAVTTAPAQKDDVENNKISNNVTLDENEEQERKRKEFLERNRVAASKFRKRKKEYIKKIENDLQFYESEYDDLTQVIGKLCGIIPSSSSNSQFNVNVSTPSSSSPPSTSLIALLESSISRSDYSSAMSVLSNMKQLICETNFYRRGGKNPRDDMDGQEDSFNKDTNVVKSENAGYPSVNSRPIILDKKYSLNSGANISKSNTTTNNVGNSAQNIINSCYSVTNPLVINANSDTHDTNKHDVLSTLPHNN
# Assay: PBM E-score (8-mer binding enrichment) (E-score (-0.5 to 0.5)); higher = stronger / more preferred TF binding; most listed sequences are background and not binding sites
# Details: protein concentration: 200 nM; construct: GST-full length
# Procedure, shortened: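 Yeast transcription factors, full-length or as DNA-binding domains, were expressed with a GST tag using PURExpress in vitro transcription/translation. At about 100-200 nM they were applied to universal all-10-mer Agilent arrays, double-stranded by primer extension on fresh or once-stripped slides. Fluorescent anti-GST detected bound protein, and masliner normalised the scans. E-scores for ungapped eight-base words, pooled with reverse complements, came from the Universal PBM Analysis Suite.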
row,Sequence,PBM E-score
1,GGACTGAA,-0.156
2,ACACCTAA,0.101
3,AGCGGTTC,-0.043
4,ACGGAATG,-0.00815
5,ACAGATGA,0.188
6,AACACCCT,-0.108
7,AAACCAGA,-0.0291
8,ACGGGGAA,-0.0141
9,AGCGATGC,-0.163
10,ATTGGTAA,0.0745
11,GCGTGGCC,-0.148
12,AGAATCAT,0.0958
13,CGGCCTTA,-0.0725
14,ACAAGTGC,-0.0489
15,CTCGAGCA,-0.0339
16,CTTCATCC,-0.23
17,TTAATCAA,0.178
18,CCGAGACC,-0.224
19,GTACTATA,0.0801
20,CAGGAAAC,-0.037
21,AACTTACG,0.408
22,AAGTTGAC,0.102
23,CATCACCC,0.0865
24,ACAGCGCT,-0.0271
25,GGAGCAAC,-0.138

row,Sequence,PBM E-score
1,GTGAAAAC,-0.0336
2,AGCGAAGC,-0.0755
3,CAAAAGCA,-0.132
4,GGGAAACC,-0.15
5,AAATCCGG,-0.0997
6,GAACCGAA,0.204
7,CGGGGCTC,-0.336
8,AGGTAAAT,0.131
9,GGTGATAA,-0.0465
10,CGAGGGGA,-0.0949
11,CGTTAATC,0.168
12,CTAAACAA,-0.0909
13,ATCCCCCG,-0.282
14,ACCAACCT,-0.0573
15,GCTATTAC,0.268
16,GGATGCCA,-0.24
17,GGTCAGTA,-0.0692
18,GGGAATAC,0.0701
19,ACAGTCTA,0.0251
20,CCACTTGA,-0.0716
21,TAGCACTA,-0.0604
22,ACCTGCTC,-0.157
23,CCCCACTC,-0.334
24,AGCTGGCG,-0.16
25,TAGAGTGA,-0.0201

row,Sequence,PBM E-score
1,CATGTAAC,0.0916
2,AGACTAAT,-0.121
3,ACCAGATA,0.0936
4,CACCAATA,0.0102
5,GAGCCGTA,-0.0668
6,GCAATTCA,-0.0438
7,CGCACGTC,0.333
8,CATTTGGG,0.0189
9,AAGTCTAT,-0.0881
10,CAAAGGAA,0.0737
11,CGCTATTA,0.0982
12,AGGTATCG,0.0527
13,CTGGGGTC,-0.155
14,GACATCTC,-0.104
15,AAGAGGTA,-0.179
16,TATGCGAA,0.126
17,CGTTGTAG,0.0645
18,AACGCTTA,0.0093
19,CTTAGGCA,-0.149
20,ACCGTCAC,0.0631
21,CTTGGCTA,-0.101
22,CCACCCTC,-0.104
23,CCCAGGAA,-0.18
24,ACGTTGCA,0.307
25,GAAGACGA,0.0858

row,Sequence,PBM E-score
1,ATTCGAAT,0.0969
2,ATGCCGAA,-0.121
3,ACTATTTG,0.0702
4,AGTGGACG,0.261
5,GACCCCGC,-0.206
6,AACCTGTA,-0.057
7,GTAACTAC,0.26
8,AAATCTCT,0.0923
9,CGGAGGCA,-0.163
10,CGACAGAC,-0.083
11,CGAAGCCA,-0.11
12,AGGTACAA,0.00931
13,ATTCCGAC,-0.0645
14,GCGCCTTA,0.0579
15,AACCACAA,-0.0239
16,AGCAATTA,0.0652
17,AATGACTG,0.0525
18,AACTGAGG,-0.0359
19,GGTGAACA,-0.153
20,ACGTTCCA,0.16
21,ACGCAATC,0.411
22,CCTGGACG,-0.154
23,AACTAGGT,-0.0107
24,CTATCAGC,0.0193
25,CCATTGAA,0.016

row,Sequence,PBM E-score
1,GGATCGTA,-0.0269
2,GTCGGCTA,-0.00791
3,GAGGGATA,-0.209
4,CTAACCCC,-0.289
5,GGATCTAA,-0.0907
6,ATTACGTG,0.487
7,CGCTTACG,0.318
8,ACACTCCA,0.0869
9,AGGCGTGG,-0.273
10,AACCAGTC,-0.111
11,CCAAGCAG,-0.195
12,AACTAGCG,-0.0716
13,AATCTGTG,-0.0631
14,CTCATGAC,0.285
15,AGACGGCG,-0.091
16,AGTCTTTA,0.175
17,AGTATCAT,0.139
18,TACGGGCA,0.0236
19,ACGCACAT,0.387
20,ATAGATAG,0.107
21,CTCGCGAC,-0.00079
22,CCAAGACA,0.00227
23,CTTGACTA,-0.0603
24,AGCTGGAA,-0.228
25,ATTCCTCA,0.0613

row,Sequence,PBM E-score
1,ACACGTCA,0.489
2,CCGAAACA,0.00154
3,ACACATTA,0.123
4,ACGCATAA,0.298
5,AGCCCTGG,-0.344
6,GGCCCTCA,-0.341
7,GCCACTAC,-0.0738
8,GGCACGTA,0.395
9,AGTCGGAG,-0.14
10,GCAACGGC,-0.213
11,CTTTCGAC,-0.106
12,ATACGGGG,-0.128
13,ATCAGAAC,0.103
14,AAACTGGC,-0.0811
15,AGCTGGCA,-0.145
16,AGGGGGTA,-0.328
17,CCTTGCGA,-0.1
18,ATTATACC,0.187
19,ATATTGCA,0.0677
20,TAGCCAAA,0.0481
21,TGACCCAA,0.0778
22,CTCTAGTC,-0.256
23,AGTGCATG,0.0503
24,GCCTTCAA,-0.252
25,ATATCGCC,-0.0736

row,Sequence,PBM E-score
1,CAACCGTC,-0.23
2,ACTTTCAC,0.123
3,CCTAGCGC,-0.14
4,AACACACT,0.125
5,ACAAAGCT,-0.0764
6,AATAGTAG,0.178
7,GTTTGATA,0.0708
8,CGCAATTA,0.325
9,AAAGTACG,0.289
10,GTCATACA,0.324
11,AACACTTA,0.172
12,GCGAAAAC,-0.149
13,CATGGATA,-0.0358
14,AATAACGT,0.426
15,ATAACAGG,-0.0069
16,CGGGAGTC,-0.258
17,CGTTAACA,0.132
18,GAGCTAGC,-0.097
19,AAGATGAG,-0.0442
20,CTCGCTAC,-0.088
21,CCAAGGGG,-0.175
22,GATAGTGA,0.162
23,GAGCCATA,-0.147
24,AAACCATA,0.089
25,AAGAGCAC,0.122

row,Sequence,PBM E-score
1,CCACGCGA,0.00647
2,CGTGTCGC,0.131
3,ACAGTCAG,0.0824
4,CACCAACC,-0.0383
5,ACAATTAA,0.235
6,AGAAGCGA,0.025
7,CAATCAGA,0.0708
8,CACACTGG,-0.283
9,AATTGAAA,0.293
10,TGTAGTAA,0.182
11,CATCATTC,0.218
12,ATGTGAAG,0.205
13,GATAATCA,0.0912
14,CACTGAGG,-0.043
15,ATTCTGAC,0.177
16,CCAGAATC,-0.0652
17,GCTCTAAC,-0.0398
18,CAGAAGTA,0.0595
19,CTCGGCTC,-0.305
20,GCAGCCAA,0.0509
21,CATGGGGC,-0.191
22,ATGAGTGA,0.143
23,AGGTAAGC,-0.163
24,TCAACCCA,0.0361
25,TCAGTGGA,-0.176

row,Sequence,PBM E-score
1,CCAGCCGG,-0.316
2,ACAAACGA,0.207
3,TCAAAAAA,0.107
4,AGTGATAG,-0.111
5,TGCACGAA,0.217
6,ACTGTTAT,0.2
7,AAGTAACT,0.153
8,ATCTGCAT,0.0514
9,GCCTCACA,0.0584
10,ATCGACCG,-0.213
11,CGAGTTGC,0.0182
12,CGAAATCA,0.294
13,CGAGAAGA,-0.0201
14,CTGGGCGA,-0.308
15,AAGGCGAT,0.0623
16,ATCGCGAA,0.0672
17,GCCTTGAC,-0.0622
18,AAGTAACA,0.0118
19,AAAAAGGT,-0.0544
